Whole data set: some 33,000 sequences, median “E-score (-0.5 to 0.5)” near -0.016, cut for the highest 2% near 0.32. Some of the results follow.
These sequences were tested against T1, Stp1 (UniProt B3LFK1) (assay: PBM E-score (8-mer binding enrichment) (E-score (-0.5 to 0.5)); higher = stronger / more preferred TF binding; most listed sequences are background and not binding sites). Conditions: protein concentration: 200 nM; construct: GST-full length.
T1 sequence: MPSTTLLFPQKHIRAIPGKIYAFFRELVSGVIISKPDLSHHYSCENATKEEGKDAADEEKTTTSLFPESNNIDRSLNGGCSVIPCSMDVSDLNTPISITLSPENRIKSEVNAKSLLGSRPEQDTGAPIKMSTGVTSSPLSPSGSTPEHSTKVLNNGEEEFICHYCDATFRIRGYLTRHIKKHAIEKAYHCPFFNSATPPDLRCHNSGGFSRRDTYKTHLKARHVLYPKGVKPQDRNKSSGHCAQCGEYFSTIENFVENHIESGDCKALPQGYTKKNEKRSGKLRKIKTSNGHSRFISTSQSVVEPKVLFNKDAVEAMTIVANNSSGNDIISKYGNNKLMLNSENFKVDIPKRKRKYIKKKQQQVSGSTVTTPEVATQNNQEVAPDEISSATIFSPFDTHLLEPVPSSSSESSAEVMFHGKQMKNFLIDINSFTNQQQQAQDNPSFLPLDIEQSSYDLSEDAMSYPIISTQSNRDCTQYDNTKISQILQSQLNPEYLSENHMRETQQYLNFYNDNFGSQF
In short: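 Universal all-10-mer Agilent arrays, double-stranded by primer extension on fresh or once-stripped slides, were probed with about 100-200 nM GST-tagged yeast transcription factors made by PURExpress. Fluorescent anti-GST detected bound protein, and masliner normalised the scans. E-scores from the Universal PBM Analysis Suite were given to each ungapped eight-base word pooled with its reverse complement.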

Compared with CGGGGACA, GTTAGTCA is higher in “PBM E-score” value: -0.261 for the first, -0.0176 for the second.

Compared with ACTGCACC, CACGCAAG is higher in “PBM E-score” value: -0.0705 for the first, 0.095 for the second.

First: ATAGCAAG
Second: CACTAAGC
The “PBM E-score” value of the first is higher: -0.0247 for the first, -0.0386 for the second.

First: AGCTTGAT
Second: GCGTCAAC
The “PBM E-score” value of the first is lower: -0.128 for the first, 0.0191 for the second.

First: ATGATGGG
Second: ACGAGACG
The “PBM E-score” value of the first is lower: -0.161 for the first, -0.0335 for the second.

Compared with GTTTGCCA, AAACCCAT is lower in “PBM E-score” value: 0.183 for the first, 0.0093 for the second.

First: AGTGCCGG
Second: AACCGTGT
The “PBM E-score” value of the first is higher: 0.211 for the first, 0.0639 for the second.

First: CTGACTGA
Second: AATGGACT
The “PBM E-score” value of the first is higher: -0.164 for the first, -0.2 for the second.

Compared with GCTCTATA, AGTCCTGA is higher in “PBM E-score” value: -0.0525 for the first, -0.0264 for the second.

Going from CGATCTCC to TTTAGAAA, the “PBM E-score” value rises from -0.0732 to 0.13.

Compared with CGGTTTAC, CAGCTAGC is lower in “PBM E-score” value: 0.0169 for the first, -0.151 for the second.

First: CGCGCGAG
Second: AGAACAAA
The “PBM E-score” value of the first is lower: 0.239 for the first, 0.246 for the second.

Compared with AATTATAT, AAAGTGGG is lower in “PBM E-score” value: 0.179 for the first, -0.235 for the second.

Going from GATACATA to CGCATGTC, the “PBM E-score” value falls from 0.146 to 0.0172.

Compared with GACCTGAA, CTAATCTC is higher in “PBM E-score” value: -0.148 for the first, 0.0259 for the second.

First: TCAGCTAA
Second: AATGGGAT
The “PBM E-score” value of the first is higher: -0.144 for the first, -0.176 for the second.

First: CACGAGAG
Second: AAACGTTA
The “PBM E-score” value of the first is lower: -0.227 for the first, -0.04 for the second.

Compared with CCAAGGGC, ACACCAGA is higher in “PBM E-score” value: -0.234 for the first, 0.00655 for the second.

Compared with CGTAACCA, CCTTCCCC is lower in “PBM E-score” value: -0.116 for the first, -0.163 for the second.

Going from CGGAACCG to GCACAGCC, the “PBM E-score” value rises from 0.00073 to 0.0901.

Compared with ACCCGATG, TAAAAACA is higher in “PBM E-score” value: -0.0553 for the first, 0.163 for the second.

First: CTTCAGCA
Second: AAGACTAG
The “PBM E-score” value of the first is higher: -0.196 for the first, -0.227 for the second.

Going from GTCTTGAA to AAGCCCGT, the “PBM E-score” value falls from 0.0442 to -0.208.

First: GCCGACAA
Second: ATCTTTGA
The “PBM E-score” value of the first is higher: 0.0311 for the first, -0.0322 for the second.

First: ACGTCTCC
Second: GAGAAATC
The “PBM E-score” value of the first is lower: -0.193 for the first, 0.119 for the second.

First: GACTCCGA
Second: AATGGGAG
The “PBM E-score” value of the first is higher: -0.173 for the first, -0.204 for the second.

Going from ACGTTGTG to CGGCGACA, the “PBM E-score” value rises from 0.0908 to 0.369.

Compared with TGGGTAAA, CCAAACGC is higher in “PBM E-score” value: -0.17 for the first, 0.0617 for the second.

Going from GGCATATA to ACCGCTGA, the “PBM E-score” value falls from 0.305 to -0.0664.

Going from AATAAACA to AGGTGGGA, the “PBM E-score” value falls from 0.162 to -0.234.

Compared with GATCATGC, ATTCTATC is higher in “PBM E-score” value: -0.223 for the first, 0.102 for the second.

Going from AGGACACC to AATAGCAG, the “PBM E-score” value falls from -0.0925 to -0.235.

First: AATCGGTG
Second: ACCTCGAC
The “PBM E-score” value of the first is lower: -0.0715 for the first, -0.0257 for the second.

First: CTAGGGTA
Second: GTTCCAAA
The “PBM E-score” value of the first is lower: -0.255 for the first, 0.108 for the second.

Going from AAGTCAGT to AGTAGATA, the “PBM E-score” value rises from 0.105 to 0.233.

Compared with AGTAATGA, CGCGCCTC is higher in “PBM E-score” value: 0.0354 for the first, 0.377 for the second.

Going from GCCCGACC to AAGGCAAG, the “PBM E-score” value rises from -0.312 to 0.0628.

First: AGGAAGTC
Second: ATCTGTGC
The “PBM E-score” value of the first is lower: -0.19 for the first, 0.171 for the second.

Going from ACAGCGCG to CGAGGAGA, the “PBM E-score” value falls from 0.181 to -0.162.

First: ACATTGAT
Second: AGCCCACC
The “PBM E-score” value of the first is higher: 0.17 for the first, -0.142 for the second.

Compared with GGGAAAAA, AGTTGCCC is lower in “PBM E-score” value: 0.0158 for the first, -0.00682 for the second.

Going from GCATTTAC to AATAGTTG, the “PBM E-score” value rises from 0.0437 to 0.0784.

First: CCCGATCC
Second: CGTCACGC
The “PBM E-score” value of the first is lower: -0.245 for the first, 0.0582 for the second.

First: AAAACAAA
Second: AAGCACGA
The “PBM E-score” value of the first is higher: 0.128 for the first, 0.0182 for the second.

First: CACGCCAC
Second: CAGAGGTC
The “PBM E-score” value of the first is higher: 0.0872 for the first, -0.0994 for the second.

Compared with GAGGGCGA, CTGATTCC is higher in “PBM E-score” value: -0.232 for the first, -0.0956 for the second.

Compared with AGGTAACC, CGGATTCC is lower in “PBM E-score” value: 0.0194 for the first, -0.00648 for the second.

Going from GCACGTGC to GCTGGAAC, the “PBM E-score” value falls from 0.352 to -0.269.

First: ACACCAAA
Second: AATCTCAT
The “PBM E-score” value of the first is higher: 0.267 for the first, 0.0525 for the second.

First: CTAGGGGA
Second: CAGTCACA
The “PBM E-score” value of the first is lower: -0.364 for the first, -0.175 for the second.

First: TATTACAA
Second: ATGCGGTA
The “PBM E-score” value of the first is lower: 0.0376 for the first, 0.0546 for the second.

Going from ACAACGAG to CCGTCTGC, the “PBM E-score” value rises from 0.058 to 0.208.

Compared with AGCCAAAT, AAATGTCG is lower in “PBM E-score” value: 0.0771 for the first, -0.0524 for the second.

Going from GACACTGC to CCATAACC, the “PBM E-score” value falls from 0.0467 to -0.0998.

First: TCGTCGCA
Second: AACGAACT
The “PBM E-score” value of the first is higher: 0.0795 for the first, -0.0533 for the second.

First: CGGAAAGA
Second: GAGCTGCC
The “PBM E-score” value of the first is higher: -0.0459 for the first, -0.156 for the second.

Going from CCAAACTA to ACTCACGA, the “PBM E-score” value falls from -0.0843 to -0.149.

First: ATTTTTAG
Second: CACAATCC
The “PBM E-score” value of the first is lower: -0.0417 for the first, -0.0187 for the second.

Going from AAGGAGCA to CTCGACAG, the “PBM E-score” value falls from -0.0841 to -0.225.

Going from CTGGTGTC to AGCAACGG, the “PBM E-score” value rises from -0.112 to 0.239.

Compared with TGATCACA, GGAGTTCA is lower in “PBM E-score” value: -0.056 for the first, -0.191 for the second.

First: AGCAATGA
Second: CTGGGGGC
The “PBM E-score” value of the first is higher: 0.131 for the first, -0.412 for the second.

Going from ACGATAGT to ATGAGGCG, the “PBM E-score” value rises from 0.00769 to 0.35.

Going from ATCGGTTG to AGCCAGGC, the “PBM E-score” value falls from 0.0446 to -0.101.

First: TAGAACTA
Second: CGGCAATA
The “PBM E-score” value of the first is lower: 0.0567 for the first, 0.352 for the second.

Going from CCTACGTA to AAATGGCG, the “PBM E-score” value rises from -0.0626 to 0.235.

Compared with CTGGATCA, CGAATTCA is higher in “PBM E-score” value: -0.249 for the first, 0.21 for the second.

Going from ATTGAAAC to TCCGCTCA, the “PBM E-score” value falls from 0.174 to -0.102.

First: CACTCGTA
Second: GGGTTACA
The “PBM E-score” value of the first is lower: -0.0702 for the first, 0.188 for the second.

Going from ACGTATTA to GGAATTGA, the “PBM E-score” value falls from 0.227 to 0.0238.

Going from ACTAATGA to GAGGGTAC, the “PBM E-score” value falls from 0.0327 to -0.22.

First: AGGTGATC
Second: ACGTCCAT
The “PBM E-score” value of the first is lower: -0.144 for the first, -0.117 for the second.

Going from ATCCTACC to CTCGCAGA, the “PBM E-score” value rises from -0.202 to -0.138.

Compared with AGCCGGTG, CAGCAGGC is lower in “PBM E-score” value: 0.0208 for the first, 0.0171 for the second.

Going from CGGACTAC to ACTTAGAG, the “PBM E-score” value falls from 0.00117 to -0.19.

Compared with AGCGCAGG, ACAGTCTC is higher in “PBM E-score” value: -0.296 for the first, -0.295 for the second.

First: CGATCACG
Second: CGGCCACG
The “PBM E-score” value of the first is lower: 0.145 for the first, 0.168 for the second.

First: CGCGAAGC
Second: CAGGATTC
The “PBM E-score” value of the first is higher: 0.129 for the first, -0.173 for the second.

First: GCACCTTA
Second: ACTATGTG
The “PBM E-score” value of the first is higher: 0.063 for the first, 0.00594 for the second.

First: ATTACTGG
Second: GGGTGTAC
The “PBM E-score” value of the first is higher: 0.0241 for the first, -0.248 for the second.

Going from ACCTGACA to AGTACATG, the “PBM E-score” value rises from -0.0993 to -0.015.

Compared with GTAGTCGA, AAGCATGT is higher in “PBM E-score” value: -0.0735 for the first, 0.00739 for the second.

Going from GATAAAGC to ACTTCCGG, the “PBM E-score” value falls from 0.142 to -0.00566.

Compared with CAGCGGTC, ACCTGAAA is higher in “PBM E-score” value: -0.262 for the first, 0.0529 for the second.

First: AAGGGAGC
Second: CCGGATCC
The “PBM E-score” value of the first is lower: -0.262 for the first, -0.15 for the second.

Going from CCCAGTCA to ACTCAAAG, the “PBM E-score” value rises from -0.288 to -0.0443.
